Reference: the supplement of paper PMC3334620
In all, about 33,000 sequences were measured (“E-score (-0.5 to 0.5)”: median about -0.035, highest 2% from about 0.35 on). The list shows a part of the results.

These sequences were tested against T1, Pdr3 (UniProt P33200) (assay: PBM E-score (8-mer binding enrichment) (E-score (-0.5 to 0.5)); higher = stronger / more preferred TF binding; most listed sequences are background and not binding sites). Conditions: protein concentration: 200 nM; construct: GST-full length.
T1 sequence: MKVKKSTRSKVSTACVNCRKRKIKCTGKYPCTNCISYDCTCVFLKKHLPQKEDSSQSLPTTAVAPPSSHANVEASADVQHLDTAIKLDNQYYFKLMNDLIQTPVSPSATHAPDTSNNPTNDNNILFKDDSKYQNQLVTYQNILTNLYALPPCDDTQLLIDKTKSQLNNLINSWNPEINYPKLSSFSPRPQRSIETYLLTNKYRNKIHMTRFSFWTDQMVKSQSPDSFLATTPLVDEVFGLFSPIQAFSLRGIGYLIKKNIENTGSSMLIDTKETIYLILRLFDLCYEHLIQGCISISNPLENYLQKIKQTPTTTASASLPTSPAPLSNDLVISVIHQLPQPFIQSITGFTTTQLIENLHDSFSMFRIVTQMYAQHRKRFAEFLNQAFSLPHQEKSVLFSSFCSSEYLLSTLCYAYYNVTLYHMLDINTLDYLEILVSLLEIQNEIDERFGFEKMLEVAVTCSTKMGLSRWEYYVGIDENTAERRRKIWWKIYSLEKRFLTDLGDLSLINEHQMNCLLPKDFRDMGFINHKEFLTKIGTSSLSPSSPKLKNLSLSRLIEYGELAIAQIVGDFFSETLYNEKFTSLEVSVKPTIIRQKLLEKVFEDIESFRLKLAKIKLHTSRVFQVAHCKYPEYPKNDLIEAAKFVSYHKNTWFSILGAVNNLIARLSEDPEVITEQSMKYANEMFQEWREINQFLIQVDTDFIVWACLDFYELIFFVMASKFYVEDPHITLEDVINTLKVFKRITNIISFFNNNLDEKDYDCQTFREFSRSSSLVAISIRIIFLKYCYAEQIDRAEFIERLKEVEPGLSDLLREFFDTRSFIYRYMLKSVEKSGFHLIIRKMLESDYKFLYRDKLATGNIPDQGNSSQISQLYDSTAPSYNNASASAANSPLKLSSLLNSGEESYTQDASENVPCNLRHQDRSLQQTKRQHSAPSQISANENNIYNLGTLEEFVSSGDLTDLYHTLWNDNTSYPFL
Method in brief: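 PURExpress in vitro transcription/translation supplied GST-tagged yeast transcription factors, either full-length or DNA-binding domain. Applied at about 100-200 nM to universal all-10-mer Agilent arrays double-stranded by primer extension, the bound protein was detected with fluorescent anti-GST. E-scores, modified Wilcoxon-Mann-Whitney statistics, were given by the Universal PBM Analysis Suite to ungapped eight-base words pooled with their reverse complements after masliner normalisation.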

| Sequence | PBM E-score |
| --- | --- |
| GGACTCTA | -0.111 |
| ACGGCGAG | 0.081 |
| TCCTAAGA | -0.101 |
| GTTGTAAA | -0.194 |
| ATATGATG | -0.0783 |
| AGGGCAGC | -0.0534 |
| AAACATGG | -0.125 |
| ATGCACAA | -0.0898 |
| ACCAGCGC | -0.153 |
| GCTTGATA | -0.112 |
| GAATAAAA | 0.0146 |
| CGTCGGTA | -0.0309 |
| AGTCACCC | -0.0284 |
| AGGTATTA | 0.0106 |
| ACTACTAG | 0.0119 |
| GCTTGCCA | -0.15 |
| AGCGCGCT | 0.216 |
| TCGGCGAA | 0.12 |
| ACTCTAAA | 0.033 |
| CTGAAGTC | 0.0005 |
| CATAATCG | 0.182 |
| ATTAAGTC | -0.179 |

| Sequence | PBM E-score |
| --- | --- |
| CTACCGCA | -0.0949 |
| AAGAGGTG | 0.0433 |
| GGTGACAA | 0.0857 |
| GCATCACC | -0.0935 |
| TTCCTAAA | -0.343 |
| AGGTGAGG | -0.133 |
| CCCGGCAA | 0.286 |
| GCCCTGCC | 0.0537 |
| AGAAGTCC | -0.088 |
| CTGAACGC | -0.131 |
| CAATACGC | -0.00732 |
| CCGGCCGG | 0.472 |
| AGGAACCT | 0.0199 |
| ATGTTATA | -0.2 |
| ATAGGCAA | -0.213 |
| ACTCGCTC | 0.0428 |
| GACTGTGA | -0.0864 |
| AGCCCATA | -0.0787 |
| CTAGATGC | 0.0149 |
| AGGATTCC | 0.223 |
| GGCCGCCA | 0.0352 |
| CCATCTCC | 0.155 |

| Sequence | PBM E-score |
| --- | --- |
| AGCTCTTA | -0.00706 |
| CCGCGTTA | 0.207 |
| ATCCAGTG | 0.079 |
| GCGCTCGA | 0.0416 |
| TAATTCTA | -0.109 |
| CTCCTGGA | -0.254 |
| GCCGGACA | 0.315 |
| ACGTCGGG | 0.138 |
| GATTAGGA | 0.0136 |
| CTCAGGAA | -0.0996 |
| AGTTTAAG | -0.233 |
| CTGAGACA | -0.184 |
| TTAAGCAA | -0.0988 |
| CGCAAAGC | 0.0757 |
| ACGAGGGA | -0.00861 |
| CTCCGAAA | 0.275 |
| GAGATGGA | 0.0859 |
| CAAGAACA | -0.149 |
| ATCTCCGC | 0.292 |
| GGTATGTA | -0.0939 |
| CCACTTGC | -0.0888 |
| ACCCATCT | 0.00637 |

| Sequence | PBM E-score |
| --- | --- |
| CGACTCGA | -0.0764 |
| AAATGAAA | 0.0812 |
| AGGCTTAA | -0.106 |
| CGTCGGAA | 0.411 |
| ACCGTCCT | -0.18 |
| AAATTGGA | -0.0205 |
| ACCAGGTA | -0.139 |
| AACGATTG | -0.0641 |
| AGGTAGTG | -0.0686 |
| CCTTGGAG | -0.0642 |
| ACGGTTAT | -0.0715 |
| CAATGAGA | -0.229 |
| CACACGTA | -0.257 |
| CCGTTGCG | 0.17 |
| CGGAGGGA | 0.234 |
| GAGAAACA | -0.0163 |
| GAGTGTGA | -0.145 |
| CGGCCAAC | 0.0406 |
| ATCCCTAA | -0.28 |
| GCAGCGGC | 0.0363 |
